Assay results reported in PubChem BioAssay AID504332 (National Center for Advancing Translational Sciences (NCATS), 2011).
Screen size: about 350,000 compounds; about 31,000 (8.9%) were called active. The inconclusive results got no clear call from the source; some entries with a clear call stand among them for comparison. Calls come from the whole dose curve; as a rule, active = well fitted inhibition curve with a large enough effect; inconclusive = small, poorly fitted or top-dose-only effect; inactive = no such curve, though single readings can be large or run the other way. A potency beside an inconclusive call is a rough fit, not a confirmed value.

Biological target: Histone-lysine N-methyltransferase EHMT2 (Homo sapiens) (UniProt Q96KQ7)
Experiment: qHTS Assay for Inhibitors of Histone Lysine Methyltransferase G9a; note: nearly all actives have a fitted effect of over 75% in size
Settings: G9a H3K9 monomethylation, AlphaScreen, 2 h; series mostly up to 59 µM
Outline: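 AlphaScreen read-out: biotin-H3K9 peptide (500 nM) methylation by 20 nM enzyme with 20 uM SAM, 2 h at room temperature after 15 min compound preincubation; anti-monomethyl H3K9 antibody plus donor/acceptor beads, 10 min dark.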
Potency is the fitted concentration of half-maximal effect; tags give direction and shape of the fitted curve.

Sequence of UniProt Q96KQ7 (Q96KQ7 whole entry, looked up): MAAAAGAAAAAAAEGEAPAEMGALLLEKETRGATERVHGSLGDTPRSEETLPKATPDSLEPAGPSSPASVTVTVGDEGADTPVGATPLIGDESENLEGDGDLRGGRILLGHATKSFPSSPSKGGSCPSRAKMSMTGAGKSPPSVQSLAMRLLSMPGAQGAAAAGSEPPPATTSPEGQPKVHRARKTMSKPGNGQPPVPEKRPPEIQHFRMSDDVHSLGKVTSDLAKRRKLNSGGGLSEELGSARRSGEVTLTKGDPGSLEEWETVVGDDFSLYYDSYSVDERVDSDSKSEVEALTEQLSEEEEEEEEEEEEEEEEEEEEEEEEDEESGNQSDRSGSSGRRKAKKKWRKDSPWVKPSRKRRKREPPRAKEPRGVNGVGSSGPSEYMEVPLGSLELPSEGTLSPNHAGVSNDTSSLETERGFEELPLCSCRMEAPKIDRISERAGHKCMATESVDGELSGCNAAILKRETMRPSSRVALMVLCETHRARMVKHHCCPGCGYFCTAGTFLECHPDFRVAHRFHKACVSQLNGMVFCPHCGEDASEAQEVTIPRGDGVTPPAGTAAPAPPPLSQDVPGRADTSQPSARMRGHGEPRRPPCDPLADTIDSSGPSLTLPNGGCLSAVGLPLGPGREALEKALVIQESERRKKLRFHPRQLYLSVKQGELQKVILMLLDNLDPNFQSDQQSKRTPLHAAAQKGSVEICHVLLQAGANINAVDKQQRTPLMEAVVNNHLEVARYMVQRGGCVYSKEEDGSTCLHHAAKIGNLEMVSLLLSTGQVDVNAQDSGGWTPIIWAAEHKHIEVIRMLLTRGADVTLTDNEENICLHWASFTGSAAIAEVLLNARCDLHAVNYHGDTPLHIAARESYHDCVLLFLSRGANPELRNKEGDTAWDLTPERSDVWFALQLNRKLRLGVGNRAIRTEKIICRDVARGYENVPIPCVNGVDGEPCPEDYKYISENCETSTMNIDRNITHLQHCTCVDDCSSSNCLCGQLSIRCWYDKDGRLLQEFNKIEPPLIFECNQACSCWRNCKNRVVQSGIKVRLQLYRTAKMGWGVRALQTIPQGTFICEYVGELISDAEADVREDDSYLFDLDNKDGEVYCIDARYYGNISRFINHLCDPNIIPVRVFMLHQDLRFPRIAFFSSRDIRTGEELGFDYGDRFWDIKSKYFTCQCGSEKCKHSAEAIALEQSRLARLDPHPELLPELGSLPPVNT

Structure (SMILES) | Potency
COc1ccc(N(CC(=O)NCc2ccccc2OC)S(=O)(=O)c2ccccc2[N+](=O)[O-])c(OC)c1 | inconclusive: 28.2 µM [inhibitor, partial curve, poor fit]
O=C(Nc1ncc(S(=O)(=O)c2ccc([N+](=O)[O-])cc2)s1)c1cccnc1 | active: 50.1 µM
Fc1ccc(-c2nc(-c3cccs3)[nH]c2-c2ccc(F)cc2)cc1 | inconclusive: 25.1 µM [inhibitor, single point]
CCn1c(SCC(=O)Nc2c(C#N)cnn2-c2ccccc2)nnc1-c1cccs1 | inconclusive: 79.4 µM [inhibitor, single point]
O=C(Nc1ccc(OC(F)(F)F)cc1)N1CCN(c2ccnc3cc(Cl)ccc23)CC1 | inactive
O=[N+]([O-])c1ccc(O)c(-c2cc(C(F)(F)F)nc(-c3ccccc3)n2)c1 | inactive
COC(=O)c1sccc1NC(=S)Nc1cc(OC)ccc1OC | inconclusive: 1 µM [inhibitor, full curve, poor fit]
Cc1cc(=O)c(C(=O)O)cn1-c1ccc(C(C)C)cc1 | active: 44.7 µM
COc1ccc(-c2cc(C(F)(F)F)nc(SCC(=O)NC(C)c3ccccc3)n2)cc1 (configuration not stated) | inactive
Clc1nc2sccn2c1/C=N/n1cnc2ccccc21 | inconclusive: 3.55 µM [inhibitor, single point]
CCOC(=O)c1ccc(NC(=O)c2c(O)c3ccccc3n(C)c2=O)cc1 | inconclusive: 79.4 µM [inhibitor, single point]
CCOc1cccc(C2/C(=C(/O)c3ccc4c(c3)CC(C)O4)C(=O)C(=O)N2CCN2CCOCC2)c1 (configuration not stated) | inconclusive: 89.1 µM [inhibitor, single point]
O=C(Nc1ccc2oc(-c3cccnc3)nc2c1)c1ccco1 | active: 50.1 µM
O=C(O)c1c2c(nc3ccccc13)/C(=C/c1c(F)cccc1F)CCC2 | inconclusive: 89.1 µM [inhibitor, single point]
CCOc1ccc(N(CC)C(=O)Cn2cnc3sc(C)c(S(=O)(=O)N4CCN(c5ncccn5)CC4)c3c2=O)cc1 | inactive
N#Cc1ccc(C23CC4(C2)[C@H](CN(Cc2ccc(-c5ccccc5)cc2)[C@@H]4c2ccccc2)C3c2ccccc2)cc1 (some centres not stated) | inconclusive: 12.6 µM [inhibitor, single point]
Cc1cc(NS(=O)(=O)c2ccc(NC(=O)COc3cc(C)c(Br)cc3C(C)C)cc2)no1 | inconclusive: 25.1 µM [inhibitor, single point]
Cc1ccc(-n2ncc(C(=O)NCCN3CCC(Cc4ccccc4)CC3)c2C2CCN(C(=O)OC(C)(C)C)CC2)cc1 | inconclusive: 10 µM [inhibitor, partial curve]
COc1ccc(NC2=C(Cl)C(=O)N(CCc3ccccc3)C2=O)c(OC)c1 | inconclusive: 3.55 µM [inhibitor, full curve, poor fit]
O=C(NCC(c1cccnc1)N1CCOCC1)c1ccco1 (configuration not stated) | inconclusive: 25.1 µM [inhibitor, single point]
Cc1ccccc1CCNC(=O)CCn1nc(C)c2c(C)n(-c3ccccc3)nc2c1=O | inactive

Structure (SMILES) | Potency
CCCn1c(SCc2nc(-c3cccs3)no2)nnc1-c1ccncc1 | inconclusive: 8.91 µM [inhibitor, partial curve, poor fit]
CC1C(=O)N2CCCc3cc(NC(=O)C(=O)NCc4ccc5c(c4)OCO5)cc1c32 (configuration not stated) | inconclusive: 70.8 µM [inhibitor, single point]
CN(N=Nc1cccc([N+](=O)[O-])c1)c1ccccc1 | inconclusive: 63.1 µM [inhibitor, single point]
O=C(O)C(Cc1c[nH]c2ccccc12)NS(=O)(=O)c1ccc2ccccc2c1 (configuration not stated) | inactive
COc1ccccc1CNC(=O)/C=C/c1ccc(S(=O)(=O)NCc2ccco2)cc1 | inconclusive: 79.4 µM [inhibitor, single point]
Cn1c(=O)c2c(nc(SCCN3CCCCC3)n2Cc2ccccc2)n(C)c1=O | inconclusive: 39.8 µM [inhibitor, single point]
Cc1cccc(C#N)c1NC1=CC(=O)CC(C)(C)C1 | inconclusive: 44.7 µM [inhibitor, partial curve, poor fit]
NCC12CC3CC(C1)CC(c1ccc(Cl)cc1)(C3)C2 | inconclusive: 31.6 µM [inhibitor, partial curve, poor fit]
O=C(c1ccc(S(=O)(=O)c2ccc(F)cc2)c([N+](=O)[O-])c1)N1CCCCCC1 | inconclusive: 89.1 µM [inhibitor, single point]
CCOC(=O)c1cc(NC(=O)c2ccc(F)cc2)c(=O)n2c1oc1ccc(Cl)cc12 | inactive
CCN(CC)CCN(C(=O)CCOc1ccccc1)c1nc2ccc(F)cc2s1 | inconclusive: 89.1 µM [inhibitor, single point]
C[N+]1(CC(O)COCC2COc3ccccc3O2)CCOCC1 (configuration not stated) | active: 35.5 µM
O=C(CNS(=O)(=O)c1ccc(F)c(Cl)c1)N1CCCCCC1 | inactive
CN(C)c1ccc(CNCCC(Cc2ccccc2)c2ccco2)cc1 (configuration not stated) | active: 22.4 µM
CCc1ccc(C(=O)NC(C(=O)NCC2CCCO2)C(C)C)cc1 (configuration not stated) | inactive
CCOC(=O)c1c(C)[nH]c(-c2csc(C)n2)c1C | inconclusive: 50.1 µM [inhibitor, partial curve, poor fit]
CCCN1C(C(=O)c2ccccc2)=C(OC(=O)COc2ccc(C)cc2)c2ccccc2S1(=O)=O | inconclusive: 7.08 µM [inhibitor, full curve]
CN1CCS/C1=C/C=C1/SC(=S)N(Cc2ccccc2)C1=O | inconclusive: 39.8 µM [inhibitor, single point]
COCCn1c(=O)[nH]c2cc(C(=O)N3CCN(c4ccccc4OC)CC3)ccc2c1=O | inconclusive: 70.8 µM [inhibitor, single point]
c1ccc2c(c1)OCC(c1nnc3n1-c1ccccc1SC3)O2 (configuration not stated) | inactive
Cc1c(/C=C(\CC(=O)O)c2nc3ccccc3s2)cc(C#N)n1C | inconclusive: 56.2 µM [inhibitor, partial curve]
